109 molecules from PubChem BioAssay AID488969 (Vanderbilt High Throughput Screening Facility, 2010) can be followed below.

“And” between values parts separate entries of the source, which are not always exact repeats. Equal values may be shown once. Over roughly 110,000 compounds, “z-score” has its median near -0.1; the highest 2% begin near 2. The list shows a part of the results. The source made the active and inactive calls.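 Rule for the calls: active = z-score in the third read window above 3 or below -3; inactive = the rest.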

The assay has as its target Metabotropic glutamate receptor 8 (Rattus norvegicus) (UniProt P70579). The assay is described as follows: rat mGluR8 modulators via GIRK flux, primary screen, cell-based, thallium flux, HTS (AID 488969). To be noted: HEK293 rat mGluR8, GIRK (G protein-gated inwardly rectifying potassium channel) thallium flux, FluoZin2; at 10 µM; stronger effect = higher value; submaximal glutamate (EC20) added with thallium.
UniProt P70579, sequence (P70579 whole entry, looked up): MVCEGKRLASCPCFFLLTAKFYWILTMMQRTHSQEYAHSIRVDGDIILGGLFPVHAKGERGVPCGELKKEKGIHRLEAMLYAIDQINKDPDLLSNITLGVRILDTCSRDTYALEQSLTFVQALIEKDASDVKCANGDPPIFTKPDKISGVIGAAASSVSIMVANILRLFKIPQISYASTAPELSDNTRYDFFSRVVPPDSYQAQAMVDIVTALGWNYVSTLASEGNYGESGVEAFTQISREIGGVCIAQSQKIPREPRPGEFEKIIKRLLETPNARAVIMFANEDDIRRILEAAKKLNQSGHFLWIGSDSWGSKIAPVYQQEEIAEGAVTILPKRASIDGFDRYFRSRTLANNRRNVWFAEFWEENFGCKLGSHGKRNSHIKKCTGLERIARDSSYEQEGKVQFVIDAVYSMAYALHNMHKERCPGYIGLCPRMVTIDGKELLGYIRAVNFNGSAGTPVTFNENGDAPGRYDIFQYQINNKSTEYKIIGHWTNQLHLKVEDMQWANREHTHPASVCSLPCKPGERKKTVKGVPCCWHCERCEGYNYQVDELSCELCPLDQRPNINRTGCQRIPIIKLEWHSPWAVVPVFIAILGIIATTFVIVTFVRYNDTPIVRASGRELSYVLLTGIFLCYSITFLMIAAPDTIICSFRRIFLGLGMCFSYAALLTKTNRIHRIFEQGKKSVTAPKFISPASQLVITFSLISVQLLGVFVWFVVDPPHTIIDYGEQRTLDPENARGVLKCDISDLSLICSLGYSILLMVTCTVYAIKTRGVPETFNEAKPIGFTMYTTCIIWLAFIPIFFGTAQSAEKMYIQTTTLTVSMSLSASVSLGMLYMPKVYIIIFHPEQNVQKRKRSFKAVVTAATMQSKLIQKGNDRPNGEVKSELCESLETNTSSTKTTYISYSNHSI
Molecule `O=C(/C=C/c1ccc2c(c1)OCO2)N1CCOCC1` registered a z-score of -0.166. Then `COc1ccc(NC(=O)CSc2nncn2C)cc1OC`, with 0.24. The value for `CCNS(=O)(=O)c1ccc(NC(=O)c2ccccc2)cc1` was -0.171; that for `O=C(Nc1ccccc1N1CCN(C(=O)c2ccccc2)CC1)c1cc(Br)ccc1Cl` was -0.569. The value for `C=CCSc1nc2ccccc2c2nc(-c3ccccc3)nn12` was -0.206; that for `Cc1ccc2nc(SC(C(=O)Nc3ccc(F)cc3)c3ccccc3)[nH]c2c1` (centres undefined) was -0.117; that for `COc1ccc(NC(=O)CN(C)S(=O)(=O)c2ccc3c(c2)CCC(=O)N3)c(OC)c1` was -0.0695.

In the case of `COc1ccc(N(CC(=O)N/N=C/c2cccs2)S(=O)(=O)c2ccc(OC)c(OC)c2)cc1`, the z-score was -0.073. The value for `Cc1c(NC2=NC3(CCCCC3)Cc3ccccc32)c(=O)n(-c2ccccc2)n1C` was 0.474. The value for `CCc1ccc(-c2cc(C(=O)Nn3cnnc3)c3ccccc3n2)cc1` was -0.0711. `COc1ccc(/C=C2\SC(=O)N(CCNC(=O)Cn3cnnn3)C2=O)cc1` yielded a z-score of 0.0317. Then `Cc1cccc(OC2(c3ccccc3)OC(=O)c3ccccc32)c1C` (centres undefined), with -0.468; and `CCCn1c(C)cc(/C=C(\C#N)C(=O)OCC(=O)Nc2ccc(OC)c(Cl)c2)c1C`, with -0.243; and `CC1(C)Cc2nc3sc4c(SCC(=O)NCc5ccccc5)ncnc4c3cc2CO1`, with 2.31.

In turn, `CC1(CC(=O)N/N=C/c2ccc(OCc3ccc(Cl)cc3Cl)cc2)OCCCO1` displayed a z-score of 0.0317. The value for `CC(C)NS(=O)(=O)c1ccc(OCC(N)=O)c(Cl)c1` was -0.364; that for `CCOc1c(S(=O)(=O)N2CCCC2)ccc(Cl)c1Cl` was -0.567; that for `CCOc1ccccc1NC(=O)C1CCN(S(=O)(=O)c2c(C)noc2C)CC1` was -0.307. In turn, `COc1ccc(CCNC(=O)c2cc3sc(Cl)cc3n2C)cc1OC` gave a z-score of -0.316. The value for `Cc1ccc(C)c(N2CCN(C(=O)C(Cc3ccccc3)n3cccc3)CC2)c1` (centres undefined) was 0.715; that for `C/C(=N\NC(=O)CCc1c[nH]c2ccccc12)c1ccc([N+](=O)[O-])cc1` was -0.582. The value for `COc1ccc(NC(=O)C(c2ccc(C)cc2)N(C)C(=O)c2ccc(=O)[nH]c2)cc1` (centres undefined) was -0.176; that for `Cc1nc(SCC(=O)NC(C)(C)C)c2c(-c3cccs3)csc2n1` was 0.0419. The value for `CC(=O)C1C(c2cccc(Oc3ccccc3)c2)NC(=O)NC1(O)C(F)(F)F` (centres undefined) was 0.0929; that for `O=C(Cn1cnc2ccccc2c1=O)OCCCCN1C(=O)c2ccccc2C1=O` was 0.319; that for `CSc1nnc2n(CCc3ccccc3)c(=O)c3c4c(sc3n12)CCCC4` was 0.0292. Consider `COCc1cc(C)nc(SCC(=O)c2ccc(O)c(O)c2)c1C#N`, for which the z-score is -0.257. `CC1(C)N=C(N)N=C(N)N1c1ccccc1` showed a z-score of 0.0157. The value for `O=C1ON=C(c2ccccc2)/C1=C/c1ccc(OS(=O)(=O)c2ccccc2)cc1` was 0.291; that for `Cc1nccn1S(=O)(=O)c1cc([N+](=O)[O-])ccc1Cl` was -0.453; that for `O=C(NCCc1cccs1)C1CC(c2c(Cl)cccc2Cl)=NO1` (centres undefined) was -0.19.

In the case of `CC(C)CC(=O)NC(=S)Nc1ccccc1F`, the z-score was found to be 0.878.

As for `CC1(C)Cc2ccccc2C(/C(=N\Nc2cccc(Cl)c2)C(N)=O)=N1`, the z-score is active: 3.23. Then `CC(=O)c1cc(-c2ccccc2)n(CCC(=O)NC2CCCCCCC2)c1C`, with -0.644; and `O=C(O)CC(=O)NC12CC3CC(CC(C3)C1)C2`, with -0.251 and -0.244; and `Cc1nnc(Sc2nc3c(c(=O)[nH]c(=O)n3C)n2CCCc2ccccc2)s1`, with 0.0127. The value for `CC(C)NC(=O)c1cc(-c2ccc(Br)cc2)on1` was 1.31; that for `Cc1c(Cl)cccc1NC(=O)c1cccc(NC(=O)CCC(=O)O)c1` was -0.284; that for `Cc1nc(Oc2cccc(Cl)c2)c2oc3ccccc3c2n1` was 0.314. Regarding `COc1ccc(/C=N/NC(=O)c2nn(-c3ccc(C)c(C)c3)c(=O)c3ccccc23)cc1`, the z-score is -0.186. The value for `CCOCCCNC(=O)CN1C(=O)CSc2cc(S(=O)(=O)N3CCCCCC3)ccc21` was -0.263. For `C=CCOc1cccc(C2C(C(=O)c3ccco3)=C(O)C(=O)N2CCN(CC)CC)c1` (centres undefined), the z-score is -0.0982. In turn, `CN(Cc1ccccc1)Cc1nc2c([nH]1)c(=O)[nH]c(=O)n2C` returned a z-score of 0.288.

Regarding `Cc1nn(-c2nc(-c3ccco3)cc(C(F)(F)F)n2)c(C)c1Br`, the z-score is -0.316. In turn, `COc1cc(/C=C2\SC(=S)N(Nc3ccccc3)C2=O)ccc1O` gave a z-score of 0.0927.

As for `O=C(Nc1ccc2c(c1)C(=O)N(CC1CCCO1)C2=O)c1ccccc1Br` (centres undefined), the z-score turned out to be 0.102.

Take `COc1ccc(OC)c(Nc2nc(-c3sc(NC(=O)CC(C)C)nc3C)cs2)c1`: the z-score was -0.309. The value for `Cc1noc(/C=C/c2ccc(-c3ccccc3Cl)o2)c1[N+](=O)[O-]` was -0.239.

Molecule `Cc1ccc2c(c1)NC(=O)C(CC(=O)NCCCN1CCCC1=O)O2` (centres undefined) registered a z-score of -1.38. Then `COc1ccc(-c2nc(C#N)c(N3CCCCCC3)o2)cc1`, with -0.424. Then `COc1ccc(CNc2nc(SC)n[nH]2)cc1OC`, with -1.24. The value for `Cc1c(Cl)ccc2c1NC(=O)[C@]21[C@@H]2C(=O)N(Cc3ccccc3)C(=O)[C@@H]2[C@@H]2CCCN21` was 1.19; that for `CC(=O)Nc1ccc(S(=O)(=O)N2CCN(C(=O)Cc3ccccc3)CC2)cc1` was 0.571; that for `COc1ccc(-c2nnc(SCC(=O)c3cccs3)o2)c(OC)c1` was 0.000783.

`CCOC(=O)C1CCCN(c2c(NCCCN(C)c3ccccc3)c(=O)c2=O)C1` (centres undefined) registered a z-score of -0.542. As to `S=C(NCc1ccco1)Nc1ccc(Cl)cc1Cl`, the z-score is 0.725. The value for `c1ccc2c(C[n+]3csc4ccccc43)cccc2c1` was 0.923; that for `COc1ccc(NC(=O)CN(C)S(=O)(=O)c2ccccc2)c([N+](=O)[O-])c1` was -0.198. Then `CNC(=O)Cn1nc(C)c2ccccc2c1=O`, with 0.0979.

In turn, `O=C(NNC1=NCCCCC1)c1ccccc1` had a z-score of -0.78. The value for `CCN(CC)c1ccc(/C=N/NS(=O)(=O)c2ccc(CNC(C)=O)cc2)cc1` was -0.119; that for `CCn1cc(C(=O)N[C@H](C)c2ccccc2)c(=O)c2cc(F)c(N3CCN(C)CC3)cc21` was -0.24; that for `CCC(C)Nc1nc(SC(C(C)=O)C(C)=O)nc(N(C)C)n1` (centres undefined) was 0.136. The value for `O=C(Nc1cc(C(F)(F)F)ccc1N1CCCCC1)c1ccc(Br)o1` was -0.139. Then `COc1ccc2[nH]c(=O)c(CN(Cc3ccco3)Cc3nnnn3Cc3ccccc3)cc2c1`, with -0.688; and `COc1ccc(OC)c(C2=Nn3c(nnc3-c3cc(OC)c(OC)c(OC)c3)SC2)c1`, with -0.884; and `O=C(NCCCNCc1ccccc1)c1ccc(/C=N/O)nc1`, with 0.298. `COc1ccc(N/C=C/C(=O)c2sc(-c3ccccc3)nc2C)cc1` yielded a z-score of -0.0681. The value for `O=C(NNC(=S)NC(=O)c1cccnc1)c1ccccc1` was 0.252; that for `N#CC1=C(N)Oc2n[nH]c(-c3cccs3)c2C1c1cccs1` (centres undefined) was -1.91; that for `N/C(=N\OC(=O)Cc1ccccc1)c1ccccn1` was -0.0784. The value for `CCOC(=O)c1c(-c2ccc(OC)cc2)csc1NC(=O)CNCc1ccco1` was -0.118; that for `CC(C)OC(=O)c1cn(-c2ccccc2)nc1-c1ccc2c(c1)OCCO2` was -0.0562. Then `Cc1ccc(S(=O)(=O)NC(C)C(=O)NC2CCCCCC2)cc1` (centres undefined), with -0.00974. The molecule `CCN(Cc1ccccc1)C(=O)c1cc2c(=O)oc3ccc(C)cc3c2s1` displayed a z-score of -0.184. The value for `O=C(Oc1ccccc1-c1nnco1)c1ccccc1` was 0.732; that for `O=C(NCc1cccnc1)c1ccc(CS(=O)(=O)c2ccc(Br)cc2)o1` was -0.146; that for `CC(C)c1ccc(N2CCN(C(=O)c3ccccc3NC(=O)/C=C\C(=O)O)CC2)cc1` was 0.705. The value for `COC(=O)/C(NC(C)=O)=C(\C)c1ccc(Cl)cc1` was 0.442.

Turning to `CCOc1ccc(-c2cc(CCCC(=O)NCc3ccc(C)cc3)no2)cc1`, the z-score turned out to be 0.969.

The molecule `CC(C)C(NC(=O)C1CCCCC1)C(=O)N1CCN(c2ccc(F)cc2)CC1` (centres undefined) displayed a z-score of -0.304. Molecule `CCN(CC)Cc1c(O)ccc2c(C)c(CC(=O)OC)c(=O)oc12` gave a z-score of 0.0516.

On to `CCC(C)(C(=O)NC1CCCC1)N(Cc1ccco1)C(=O)Cc1cccs1` (centres undefined), for which the z-score was 0.0511.

`Cn1c(=O)n(C)c2cc(CNc3ccc(N4CCOCC4)c(C(=O)O)c3)ccc21` returned a z-score of 0.0129. The value for `O=C(COc1ccc([N+](=O)[O-])cc1)NCc1ccccc1` was -0.000174. With `N#Cc1nc(COc2cccc(Cl)c2)oc1N1CCCC1`, the z-score was -0.382. `CCOc1ccc(N(Cc2cc3cc(OC)ccc3[nH]c2=O)C(=O)C2CCCO2)cc1` (centres undefined) returned a z-score of 0.195. On to `CC1(C)Cc2c(C#N)c(NCC3CCCO3)nc(-c3ccco3)c2CO1` (centres undefined), for which the z-score was -1.48. As for `CCOC(=O)C1=C(C)OC(N)=C(C#N)C1c1ccc(C)o1` (centres undefined), the z-score is -0.127. Then `Cc1ccc(OCCNS(=O)(=O)c2ccc(N3CCCC3=O)cc2)cc1C`, with -0.0565; and `CS(=O)(=O)N(Cc1ccc(Cl)cc1)c1ccc(C(=O)N/N=C/c2cc3ccccc3nc2Cl)cc1`, with 0.209. Then `CCCC1C(c2ccc(OC)cc2)C(C#N)(C#N)C2(C#N)CC1(N)NC2=O` (centres undefined), with -1.46; and `O=C(Nc1ccccc1)N(Cc1ccccc1)CC(O)C(F)(F)F` (centres undefined), with 0.128; and `COC(=O)c1ccccc1OCCCCN1CC(C)OC(C)C1` (centres undefined), with -0.352.

`Cc1ccc(OCc2ccoc2C(=O)O)cc1C` returned a z-score of -0.755. The value for `Cc1ccc(CN2CCCNC2=O)cc1` was 0.0901; that for `Cc1cccc(NC(=S)NCC(c2cccnc2)N(C)C)c1C` (centres undefined) was 0.024; that for `Cc1cc(C(=O)Cn2nnc(-c3ccc(Cl)cc3)n2)c(C)n1CC1CCCO1` (centres undefined) was -0.156. Then `CSc1cccc(NC(=O)C2CCN(S(C)(=O)=O)CC2)c1`, with -0.0146; and `CSc1ccc(C#N)cc1NC(=O)c1cccc(Cl)c1`, with -0.253. The value for `CCOc1ccccc1C(=O)Nc1cc(Cl)ccc1O` was -1.29; that for `CCc1cc(C(=O)OC)c(NC(=O)CC2NCCNC2=O)s1` (centres undefined) was -0.198; that for `N#Cc1c2nc3ccccc3nc2n2cc(NC(=O)c3ccc(F)cc3)ccc12` was 0.0599. `COc1ccc(NC(=O)c2cc(F)cc(F)c2)cc1Cl` returned a z-score of -0.465.

Turning to `CNC(=O)c1ccccc1-c1ccccc1`, the z-score is -0.224. Then `C/C(CC1CC(COCCC(C)C)OC1=O)=N\NC(N)=S` (centres undefined), with -0.19; and `O=C(CSc1nc2ccccc2o1)N1CCN(c2ccccc2)CC1`, with -0.672. `O=C(NN1CCOCC1)c1ccc(Cl)cc1` yielded a z-score of -0.16. Then `N#C/C(=C\c1cc([N+](=O)[O-])c(N2CCOCC2)cc1N1CCOCC1)c1nc2ccccc2[nH]1`, with -0.756.
